Reference: the supplement of paper PMC10126150
Values marked as one replicate rest on one cluster of the flow cell; about a third of the high ones do not repeat.
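Also: ATP exposure 15 min at 22 °C before imaging.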

What follows are sequences tested on ATP (assay: switch fluorescence ratio, 500 uM ATP over buffer (Cy3 cluster intensity, sum of 5 cycles each) (fold (ratio)); higher = stronger signal-on switching upon ATP binding; sequences stand for … in TCGTCGGCAGCGTCAGATGTGTATAAGAGACAGTTTTTTTTTTTTTTTTTTTTTTTTT…TC). Details: aptamer strand: ATP DNA aptamer (quencher-CACCTGGGGGAGTATTGCGGAGGAAGG + anchor), 100 nM annealed; ATP concentration: 500 uM; one replicate.
Summary of the method: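 Cy3-labelled switching-strand clusters on a modified Illumina MiSeq flow-cell were annealed to 100 nM quencher-labelled ATP aptamer, imaged in selection buffer, then imaged after 15 min with 500 uM ATP at 22 °C. Five buffer/ATP cycles ran, with NaOH stripping and re-annealing between them. The fluorescence ratio is summed target-cycle over summed buffer-cycle Cy3 intensity per cluster, averaged per switch-domain sequence. Clusters outside 100-1000 RFU were excluded.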
CATTAGCAGA was tested, and the switch fluorescence ratio was 1.09.
AGCATCGTTT was tested, and the switch fluorescence ratio was 0.968.
TTAGAGCCAA was tested, and the switch fluorescence ratio was 1.03.
In the case of GGCAAAGCGG, the switch fluorescence ratio is reported as 1.04.
TGGCATAGCG was tested, and the switch fluorescence ratio was 1.02.
TCGTGTCCGC showed a switch fluorescence ratio of 1.07.
TACGCTTTGC gave a switch fluorescence ratio of 1.19.
Sequence ACATTGCTAA has a switch fluorescence ratio of 1.01.
For AACGTAGGCT, the switch fluorescence ratio was 1.02.
Sequence GCCTTTTTCC has a switch fluorescence ratio of 1.19.
Work on GACAAGAAGA yielded a switch fluorescence ratio of 1.08.
In the case of ATGACGGCGA, the switch fluorescence ratio is reported as 0.934.
For GCACAGGCGT, the switch fluorescence ratio was 1.16.
TAGCTTTTCC was tested, and the switch fluorescence ratio was 1.11.
In the case of GATGCTTCTA, the switch fluorescence ratio is reported as 0.963.
TGTGTGTCTA showed a switch fluorescence ratio of 1.04.
With GTCTCACCGT the switch fluorescence ratio was 1.04.
Work on AAGGTAAACG yielded a switch fluorescence ratio of 1.03.
Work on ACGTGACGCG yielded a switch fluorescence ratio of 0.989.
For TCAGCACCAT, the switch fluorescence ratio was 0.989.
In the case of CATAAGGCGA, the switch fluorescence ratio is reported as 1.04.
TATTTTACTT gave a switch fluorescence ratio of 1.02.
In the case of GCGGGGGATT, the switch fluorescence ratio is reported as 0.989.
TTCTCGTGAT showed a switch fluorescence ratio of 2.25.
In the case of CTGTTGGTTC, the switch fluorescence ratio is reported as 1.01.
TTCGAACTGG gave a switch fluorescence ratio of 1.01.
CCTAGCGCCA showed a switch fluorescence ratio of 3.07.
For GTTTAAAGTT, the switch fluorescence ratio was 1.01.
TATTACGCT gave a switch fluorescence ratio of 1.02.
TTCCATAAAA showed a switch fluorescence ratio of 0.983.
Work on TGCACTATGC yielded a switch fluorescence ratio of 1.03.
AAAATCTGG gave a switch fluorescence ratio of 1.
With CGCCCATGAA the switch fluorescence ratio was 1.05.
Work on CTAGAATACA yielded a switch fluorescence ratio of 1.03.
TCCAGTGGCA showed a switch fluorescence ratio of 0.985.
Sequence CGTTTATGTC has a switch fluorescence ratio of 0.987.
AATAGTGATA gave a switch fluorescence ratio of 1.01.
With ATCGCCGCTT the switch fluorescence ratio was 1.09.
CGTGAAGATA showed a switch fluorescence ratio of 1.01.
ACCAAGTAGT was tested, and the switch fluorescence ratio was 1.02.
CGAATCCTCT showed a switch fluorescence ratio of 1.01.
Sequence AGCCTGTGGG has a switch fluorescence ratio of 0.999.
TTTAAGCGTC gave a switch fluorescence ratio of 1.08.
In the case of GCTACAGACG, the switch fluorescence ratio is reported as 1.21.
GCCTGATATG gave a switch fluorescence ratio of 1.01.
Sequence CGTTTGTGAC has a switch fluorescence ratio of 1.01.
AAGAATCGGA was tested, and the switch fluorescence ratio was 1.01.
In the case of GGGGTTTT, the switch fluorescence ratio is reported as 1.
GCAGGATCTC gave a switch fluorescence ratio of 1.06.
For GTGGCATCTT, the switch fluorescence ratio was 1.
TTCTCCTGCG showed a switch fluorescence ratio of 0.963.
Work on GCTATCAATA yielded a switch fluorescence ratio of 1.08.
ACTACTAGAC was tested, and the switch fluorescence ratio was 1.17.
Work on GAATACCTTG yielded a switch fluorescence ratio of 1.04.
TCGCTGATGC was tested, and the switch fluorescence ratio was 1.46.
In the case of CATGTTTCGG, the switch fluorescence ratio is reported as 0.974.
CCCGCTCTGG showed a switch fluorescence ratio of 1.17.
With CTTCAATAGT the switch fluorescence ratio was 1.07.
GCGAAATAAC was tested, and the switch fluorescence ratio was 1.27.
In the case of CTGTATTGCT, the switch fluorescence ratio is reported as 1.02.
GCAAGGAATT gave a switch fluorescence ratio of 0.977.
For ACAACCATAT, the switch fluorescence ratio was 1.02.
Sequence CTACTAACA has a switch fluorescence ratio of 1.15.
AGATATTGAG gave a switch fluorescence ratio of 0.993.
GGTGCCTGAC showed a switch fluorescence ratio of 1.4.
Work on TCTGGCAAGT yielded a switch fluorescence ratio of 0.982.
GGTGGAGGCC showed a switch fluorescence ratio of 0.954.
Sequence CGGCACGGCG has a switch fluorescence ratio of 0.989.
Work on AACAAAGTGC yielded a switch fluorescence ratio of 0.929.
CGGACAGAT gave a switch fluorescence ratio of 1.06.
In the case of GTAGTAGGCA, the switch fluorescence ratio is reported as 0.972.
With CCTTCAATAT the switch fluorescence ratio was 3.41.
Work on CTGGAGGCTG yielded a switch fluorescence ratio of 1.09.
For TTCAATGCTA, the switch fluorescence ratio was 1.11.
In the case of GGCGGGCGTT, the switch fluorescence ratio is reported as 0.985.
In the case of TTGTACTAA, the switch fluorescence ratio is reported as 0.98.
With AGCGGACAGA the switch fluorescence ratio was 1.04.
For TGCGTATATC, the switch fluorescence ratio was 1.12.
Work on ATCATTCTTA yielded a switch fluorescence ratio of 0.961.
In the case of ATTACGCTTA, the switch fluorescence ratio is reported as 1.15.
GCTTTCATGG showed a switch fluorescence ratio of 0.972.
Work on GGGATCTGCT yielded a switch fluorescence ratio of 1.01.
For CCTCGAACA, the switch fluorescence ratio was 1.4.
In the case of AGTGCTCTGA, the switch fluorescence ratio is reported as 0.944.
TGAATTCCGA showed a switch fluorescence ratio of 1.04.
In the case of ACGTTGAGGT, the switch fluorescence ratio is reported as 1.03.
TTCTGGGTG was tested, and the switch fluorescence ratio was 1.08.
ATGAGACAGC gave a switch fluorescence ratio of 1.05.
Work on TTTCTTGAG yielded a switch fluorescence ratio of 0.951.
For GTATTAGGTT, the switch fluorescence ratio was 0.98.
CATGTAATTC gave a switch fluorescence ratio of 1.06.
Work on TAAGCCTCCA yielded a switch fluorescence ratio of 0.999.
AAGTAGGTAA gave a switch fluorescence ratio of 1.22.
GGTTGAATGC showed a switch fluorescence ratio of 1.03.
GGAACGCGGG was tested, and the switch fluorescence ratio was 0.956.
In the case of CGCAGGAGCG, the switch fluorescence ratio is reported as 0.981.
For CTGGTCAGTT, the switch fluorescence ratio was 0.965.
In the case of ATGACTGCGT, the switch fluorescence ratio is reported as 0.998.
AATCGACATC was tested, and the switch fluorescence ratio was 1.02.
For GCATATCCTG, the switch fluorescence ratio was 0.994.
Sequence AGATGCGATA has a switch fluorescence ratio of 0.934.
GATCTGTATT showed a switch fluorescence ratio of 1.03.
For GCTTGCTTAC, the switch fluorescence ratio was 1.22.
TGATCATCAG was tested, and the switch fluorescence ratio was 0.949.
AGTCGAGTG was tested, and the switch fluorescence ratio was 1.01.
GTTAAGGTAG showed a switch fluorescence ratio of 0.987.
GGTATAATCG was tested, and the switch fluorescence ratio was 0.951.
Sequence CTAGGTTTTC has a switch fluorescence ratio of 0.999.
In the case of CAGGAGGCCT, the switch fluorescence ratio is reported as 1.01.
GTGACGCGGG showed a switch fluorescence ratio of 0.991.
With TGACGCGGTT the switch fluorescence ratio was 1.18.
Work on CCAAAATGCC yielded a switch fluorescence ratio of 1.12.
TAACAGTTTC showed a switch fluorescence ratio of 0.949.
Work on TATGCCTTAT yielded a switch fluorescence ratio of 1.02.
GAAATAGACG gave a switch fluorescence ratio of 0.995.
With CAGCTGGAAA the switch fluorescence ratio was 1.02.
TTCAGGGGC was tested, and the switch fluorescence ratio was 1.06.
Sequence TAATAAGGGC has a switch fluorescence ratio of 0.985.
With CGGCACGGTG the switch fluorescence ratio was 1.04.
With CCTTGGACT the switch fluorescence ratio was 0.993.
Work on ATTTTACACT yielded a switch fluorescence ratio of 1.03.
With CGAAACGAAC the switch fluorescence ratio was 1.09.
With CATTGAATGA the switch fluorescence ratio was 1.04.
CGGTATATGT gave a switch fluorescence ratio of 0.967.
For GCGTACAGGG, the switch fluorescence ratio was 1.03.
ATGAAGGCAT gave a switch fluorescence ratio of 0.985.
CCCCGTCTTT was tested, and the switch fluorescence ratio was 1.08.
ATCCTCTTTT showed a switch fluorescence ratio of 1.
TTAGATGTTT was tested, and the switch fluorescence ratio was 0.971.
TTGTCAGCGC gave a switch fluorescence ratio of 1.
Work on TTAGTGACTT yielded a switch fluorescence ratio of 0.993.
With AATGTCCGGT the switch fluorescence ratio was 0.972.
AAGCACAAAT showed a switch fluorescence ratio of 1.12.
TTCAAAGAGG gave a switch fluorescence ratio of 0.975.
ATAGACGCGC gave a switch fluorescence ratio of 0.987.
Work on GGTAACGAAA yielded a switch fluorescence ratio of 1.02.
ATTCATGATG gave a switch fluorescence ratio of 0.995.
Sequence GAGGGAACGC has a switch fluorescence ratio of 0.944.
Work on GCGGGACTA yielded a switch fluorescence ratio of 0.999.
For GGCAATTGCT, the switch fluorescence ratio was 0.99.
GAATTATTTC gave a switch fluorescence ratio of 0.973.
Work on ACCGCCCCTT yielded a switch fluorescence ratio of 1.21.
TCCCTGGGGC showed a switch fluorescence ratio of 1.28.
AAACGAGCTT showed a switch fluorescence ratio of 0.983.
Work on AGTATGGATA yielded a switch fluorescence ratio of 0.989.
GACAAAAGC showed a switch fluorescence ratio of 1.05.
GGGGGAACTC was tested, and the switch fluorescence ratio was 1.02.
CGCAAAACCC gave a switch fluorescence ratio of 4.71.
AGGCTTTTC was tested, and the switch fluorescence ratio was 1.02.
Sequence TACGCGATTG has a switch fluorescence ratio of 1.1.
CCGGTGCGAC was tested, and the switch fluorescence ratio was 4.96.
In the case of TTGTCAGACG, the switch fluorescence ratio is reported as 0.926.
CGGGCACGCC showed a switch fluorescence ratio of 0.999.
For GCTTAGGGAT, the switch fluorescence ratio was 1.05.
GTTTATGTTT showed a switch fluorescence ratio of 0.958.
For AATTAAATTC, the switch fluorescence ratio was 1.09.
For CAGTAATTAA, the switch fluorescence ratio was 0.995.
For ATACAGAACG, the switch fluorescence ratio was 1.25.
With TACCAATTTT the switch fluorescence ratio was 1.
Work on AAAAGGGGAC yielded a switch fluorescence ratio of 1.01.
Work on GCCCAGTACG yielded a switch fluorescence ratio of 1.17.
AGGGACCCAG showed a switch fluorescence ratio of 1.04.
Work on GTGTTACAGC yielded a switch fluorescence ratio of 0.966.
For CCCAAGTCA, the switch fluorescence ratio was 1.03.
Sequence TAACTATTAG has a switch fluorescence ratio of 0.991.
In the case of GCGCACAAAG, the switch fluorescence ratio is reported as 1.01.
In the case of AGACTATTGT, the switch fluorescence ratio is reported as 0.985.
In the case of AGGCGGGCAT, the switch fluorescence ratio is reported as 0.961.
CTATCTATGG was tested, and the switch fluorescence ratio was 1.02.
For TTTCACAGTT, the switch fluorescence ratio was 0.985.
Sequence TTTTAGAAAA has a switch fluorescence ratio of 0.968.
AAGATAGTGA gave a switch fluorescence ratio of 1.03.
GGTTTGCCTG was tested, and the switch fluorescence ratio was 0.974.
Work on AAAGAAGATA yielded a switch fluorescence ratio of 0.943.
AAATGAGGTG gave a switch fluorescence ratio of 1.03.
Sequence TGCGTTAATT has a switch fluorescence ratio of 1.03.
For GTTGCGCGGT, the switch fluorescence ratio was 0.963.
Sequence TGATAGCATT has a switch fluorescence ratio of 1.03.
Sequence GGGATAGCGG has a switch fluorescence ratio of 0.948.
For CACATTCCGG, the switch fluorescence ratio was 1.12.
CCGAGTTGTA was tested, and the switch fluorescence ratio was 1.12.
With GCAAATTGGT the switch fluorescence ratio was 1.01.
With ATCTTGAACG the switch fluorescence ratio was 0.99.
TTTCTCGGGC was tested, and the switch fluorescence ratio was 1.07.
With AAATGGCGAG the switch fluorescence ratio was 0.993.
GGTTGCAGAA gave a switch fluorescence ratio of 1.02.
CGGGCAAATA was tested, and the switch fluorescence ratio was 1.17.
Sequence ATGAAGCCGT has a switch fluorescence ratio of 1.16.
In the case of GAGGGGCTA, the switch fluorescence ratio is reported as 0.998.
For CAGACGGAGG, the switch fluorescence ratio was 0.986.
For AGAGCGGTGA, the switch fluorescence ratio was 0.98.
With CAGCCACGCT the switch fluorescence ratio was 1.02.
AGTGCCCCGT was tested, and the switch fluorescence ratio was 1.02.
GATCTTAGAT gave a switch fluorescence ratio of 0.984.
CAACGCACAA gave a switch fluorescence ratio of 1.72.
Sequence GCTGCTACTT has a switch fluorescence ratio of 1.04.
CTGTCTGCTC gave a switch fluorescence ratio of 1.05.
Work on TTATGCCAGG yielded a switch fluorescence ratio of 1.07.
In the case of TCCAGTGCCT, the switch fluorescence ratio is reported as 1.11.
Sequence CTAGTTGTGC has a switch fluorescence ratio of 0.975.
